According to PubChem BioAssay AID504332 (National Center for Advancing Translational Sciences (NCATS), 2011):
Several values for one entry are separate records, joined by “and”; a condition that tells them apart may be missing. Equal values may be shown once. Among all 350,000 compounds or so, about 31,000 (8.9%) were called active. Inconclusive means that the source gave no clear call. Such entries were picked first, then a sample of the others. Calls come from the whole dose curve; as a rule, active = well fitted inhibition curve with a large enough effect; inconclusive = small, poorly fitted or top-dose-only effect; inactive = no such curve, though single readings can be large or run the other way. Potencies beside an inconclusive call are fits to weak or partial responses and may not hold up. Where a structure was tested more than once in an assay, its records may differ in their call.

biological target: Histone-lysine N-methyltransferase EHMT2 (Homo sapiens) (UniProt Q96KQ7); assay: qHTS Assay for Inhibitors of Histone Lysine Methyltransferase G9a; settings: G9a H3K9 monomethylation, AlphaScreen, 2 h; activity, negative = inhibition: at 59 µM (top of the series) unless noted; note: nearly all actives have a fitted effect of over 75% in size
Sequence of UniProt Q96KQ7 (Q96KQ7 whole entry, looked up): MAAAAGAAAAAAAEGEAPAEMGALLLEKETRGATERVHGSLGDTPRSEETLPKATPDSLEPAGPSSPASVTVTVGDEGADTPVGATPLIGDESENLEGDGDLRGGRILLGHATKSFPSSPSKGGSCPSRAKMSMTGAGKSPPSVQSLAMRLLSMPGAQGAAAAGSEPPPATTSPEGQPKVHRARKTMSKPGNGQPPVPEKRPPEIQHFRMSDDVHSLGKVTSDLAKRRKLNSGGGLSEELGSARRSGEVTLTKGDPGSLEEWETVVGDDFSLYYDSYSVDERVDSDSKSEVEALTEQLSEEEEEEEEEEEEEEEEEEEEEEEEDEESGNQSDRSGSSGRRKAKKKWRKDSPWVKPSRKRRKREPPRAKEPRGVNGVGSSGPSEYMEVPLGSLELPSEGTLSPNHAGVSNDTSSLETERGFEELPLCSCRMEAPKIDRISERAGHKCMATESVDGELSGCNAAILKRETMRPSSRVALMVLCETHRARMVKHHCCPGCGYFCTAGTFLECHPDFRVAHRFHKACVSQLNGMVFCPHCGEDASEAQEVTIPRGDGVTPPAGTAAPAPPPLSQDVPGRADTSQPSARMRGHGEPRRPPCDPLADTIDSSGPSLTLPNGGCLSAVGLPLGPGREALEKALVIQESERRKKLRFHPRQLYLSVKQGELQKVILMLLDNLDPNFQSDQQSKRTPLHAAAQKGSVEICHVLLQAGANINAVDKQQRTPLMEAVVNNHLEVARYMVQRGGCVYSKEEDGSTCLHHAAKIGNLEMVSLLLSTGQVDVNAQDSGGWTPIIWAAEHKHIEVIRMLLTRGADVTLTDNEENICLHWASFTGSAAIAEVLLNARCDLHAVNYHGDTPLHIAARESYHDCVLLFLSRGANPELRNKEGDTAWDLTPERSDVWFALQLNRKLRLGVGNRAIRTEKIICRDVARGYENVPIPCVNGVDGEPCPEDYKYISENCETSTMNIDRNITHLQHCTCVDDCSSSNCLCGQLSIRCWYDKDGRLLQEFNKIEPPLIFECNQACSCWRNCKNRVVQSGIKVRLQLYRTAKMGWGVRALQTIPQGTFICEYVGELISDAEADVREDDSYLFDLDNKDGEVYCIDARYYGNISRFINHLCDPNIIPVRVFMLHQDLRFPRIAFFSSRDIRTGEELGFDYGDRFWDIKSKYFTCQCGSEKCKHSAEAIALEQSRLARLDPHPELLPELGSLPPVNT
Method in brief: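 Step 1: enzyme (final 20 nM) with compound, 15 min RT. Step 2: substrate peptide 500 nM and SAM 20 uM, 2 h RT. Step 3: anti-H3K9me1 antibody and AlphaScreen beads, 10 min, then plate read.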
% is set by controls: 0 for no effect and ±100 for the full control effect; potency is the fitted concentration of half-maximal effect; tags give direction and shape of the fitted curve.

SMILES	activity, negative = inhibition	Potency
CCOc1ccc2[nH]c(=O)c(C(c3nnnn3Cc3ccco3)N3CCCC(C)C3)cc2c1 (configuration not stated)	inconclusive: -82.6% [inhibitor]	
CC(C)OCCCNC(=O)C(=O)Nc1c2c(nn1-c1ccccc1)CS(=O)(=O)C2		inconclusive: 31.6 µM [inhibitor, partial curve, poor fit]
CC(C)CNC(=O)C(=O)NCc1ccccn1		inconclusive: 25.1 µM [inhibitor, single point]
COc1ccc(-c2cn(Cc3ccc(C)cc3)nn2)cc1		inconclusive: 39.8 µM [inhibitor, single point]
CCN(CC(=O)Nc1cc(Cl)ccc1C)C(=O)c1ccc2c(c1)NC(=O)C(C)S2 (configuration not stated)		inconclusive: 79.4 µM [inhibitor, single point]
COc1cc(/C=C2\NC(=S)NC2=O)ccc1OCc1cccc(C(=O)O)c1		inconclusive: 89.1 µM [inhibitor, single point]
O=C(N/C(=C/c1cccc([N+](=O)[O-])c1)C(=O)N1CCCCC1)c1ccco1		inconclusive: 39.8 µM [inhibitor, partial curve, poor fit]
COc1ccc(C(=O)NCC(c2ccco2)S(=O)(=O)c2ccc(F)cc2)cc1 (configuration not stated)	inactive: 4.29%	
CC(NC(=O)CSC(=S)N(C)C)C12CC3CC(CC(C3)C1)C2 (configuration not stated)	inactive: 5.66% [at 102 µM]	
COc1cccc(OCc2cc(C(=O)N(C)Cc3nccn3C)no2)c1		inconclusive: 70.8 µM [inhibitor, partial curve, poor fit]
CCc1ccc(-c2cc(C(=O)NN3CCOCC3)c3ccccc3n2)s1	inconclusive: -61% [inhibitor]	
Cc1cccc(N=C2NC(=O)/C(=C/c3cccnc3)S2)c1C		inconclusive: 89.1 µM [inhibitor, partial curve, poor fit]
CCOC(=O)C1=C(COC(=O)c2cc(Br)c(Br)s2)NC(=O)NC1C (configuration not stated)	inconclusive: -81.7% [inhibitor] [at 2.33 µM]	
Oc1ccccc1CNc1ccc2c(c1)OCCO2		inconclusive: 28.2 µM [inhibitor, full curve]
COc1ccc(/C=C/C(=O)NCCC(=O)N2CCCN(C)CC2)cc1		inconclusive: 14.1 µM [inhibitor, full curve]
CCOC(=O)c1c(C)[nH]c(C)c1S(=O)(=O)N1CCC(C(=O)Nc2ccc(OCC)cc2)CC1	inactive: -3.78%	
COc1cc2[nH]c(=O)n(CCCC(=O)N3CC=C(c4ccccc4)CC3)c(=O)c2cc1OC	inconclusive: -64.6% [inhibitor]	
NC(=O)CCC(NS(=O)(=O)c1ccc(Cl)cc1)C(=O)NCc1ccc(Cl)cc1 (configuration not stated)	inactive: -39.2%	
N=c1scc(-c2ccccc2)n1/N=C/c1ccco1		active: 11.2 µM
CCCNC(=O)c1onc(CSc2ccc(F)cc2)c1C(=O)NCC1CC1	inactive: -0.727% [at 2.33 µM]	
COc1ccccc1NC(=O)COc1ccc(Br)cc1CNCCCN1CCOCC1		inconclusive: 56.2 µM [inhibitor, partial curve, poor fit]
Cc1ccc(/C(O)=C2\C(=O)C(=O)N(C)C2c2ccc(Br)cc2)cc1 (configuration not stated)		inconclusive: 89.1 µM [inhibitor, single point]
Cc1ccc(CNC(=O)C2CC3Cn4c(nc5cc(Cl)c(Cl)cc54)C3N2C)o1 (configuration not stated)	inconclusive: -54.8% [inhibitor]	

SMILES	activity, negative = inhibition	Potency
Cn1c(=O)c2c([nH]c(=S)n2CCCc2ccccc2)n(C)c1=O	inactive: 18.4% [at 0.501 µM]	
COC(=O)c1ccc(N2CCN(S(=O)(=O)c3ccc(Br)cc3)CC2)c([N+](=O)[O-])c1	inconclusive: -64.4% [inhibitor]	
COc1cc(/C=N/NC(=O)C(Cc2c[nH]c3ccccc23)NC(=O)OCC(C)C)cc([N+](=O)[O-])c1O (configuration not stated)		inconclusive: 22.4 µM [inhibitor, single point]
CCOC(=O)c1[nH]cnc1C(=O)Nc1cccc(OC)c1		inactive and active: 28.2 µM
Cc1ccc(C2NC(=O)c3sc(=S)n(-c4ccccc4)c3N2)cc1 (configuration not stated)	inconclusive: -61.1% [inhibitor] [at 12.7 µM]	
O=C(O)C1=NN(c2c(F)c(F)cc(F)c2F)C(=O)CC1		inconclusive: 79.4 µM [inhibitor, partial curve, poor fit]
O=C(NCCCN1CCCC1=O)c1cccc(S(=O)(=O)Nc2ccc(F)cc2)c1		inconclusive: 0.158 µM [inhibitor, full curve, poor fit]
COc1ccccc1OCCOc1ccc(/C=N/n2cnnc2)cc1	inactive: -8.1% [at 12.7 µM]	
CCCn1c(CCC(=O)Nc2cc(C(=O)OC)cc(C(=O)OC)c2)nc2cccnc21	inactive: -17.6%	
COc1ccc(-n2c(=O)c3sc4ccccc4c3n(C)c2=O)cc1		inconclusive: 35.5 µM [inhibitor, single point]
CN1CCN(c2nc(-c3ccccc3)ncc2S(=O)(=O)c2ccccc2)CC1		inconclusive: 39.8 µM [inhibitor, single point]
Cc1ccc(NC(=O)CSc2nnnn2C2CCCC2)cc1S(=O)(=O)N1CCOCC1		inconclusive: 7.08 µM [inhibitor, single point]
COc1ccc(C2=NOC(C(=O)Nc3ccc(C)cc3)C2)cc1OC (configuration not stated)		inconclusive: 89.1 µM [inhibitor, single point]
CC1=C(C)C(=O)N(c2ccccn2)C1=O	inactive: 9.17% [at 102 µM]	
CCCN1CCN(c2nnc(-n3cccc3C(=O)Nc3cc(Cl)ccc3C)s2)CC1		inconclusive: 11.2 µM [inhibitor, partial curve, poor fit]
O=C(CN1C(=O)C2CC=CCC2C1=O)Nc1nccs1 (configuration not stated)	inactive: -7.75% [at 12.7 µM]	
Cc1ccc(C(C)C)c(OCc2nn(CC(=O)c3ccc(OC(F)F)cc3)c3[n+]2CCCCC3)c1	inconclusive: -67.6% [inhibitor]	
COc1cc(/C=N/NC(=O)CC23CC4CC(CC(C4)C2)C3)cc(Br)c1OCC(=O)N(C)C		inconclusive: 10 µM [inhibitor, partial curve, poor fit]
Cc1cccc(N=C2SC(C)CN2C(=O)CN2C(=O)NC3(CCCC3)C2=O)c1 (configuration not stated)	inactive: -1.2% [at 0.501 µM]	
CCC(=O)N1c2ccccc2CC1C(=O)NCCc1cc(OC)c(OC)c(OC)c1 (configuration not stated)	inactive: 1.04%	
CN(CCCN1CCCCC1)C(=O)c1cc(COc2ccc(F)cc2F)on1	inactive: 44.6% [at 102 µM]	
COc1ccc(/C=C/C(=O)ONC2=NCCCCC2)cc1OC	inactive: -12.2% [at 102 µM]	
O=C1/C(=C/c2ccc(F)cc2)SC(=S)N1CC(=O)N1CCCCC1c1cccnc1 (configuration not stated)		active: 39.8 µM

SMILES	activity, negative = inhibition	Potency
Cc1ccc(-c2nc(CS(=O)CC(=O)NCc3ccccc3Cl)c(C)o2)cc1 (configuration not stated)		inconclusive: 10 µM [inhibitor, partial curve]
O=C(c1ccc2c(c1)C(=O)N(Cc1ccco1)C2=O)N1CCOCC1		inconclusive: 79.4 µM [inhibitor, single point]
c1ccc2c(CCNc3ncnc4nc[nH]c34)c[nH]c2c1	inactive: -1.19% [at 102 µM]	
COc1ccc(NC(=O)C2=C(C)NC(=S)NC2c2ccc(O)c(OC)c2)cc1 (configuration not stated)		inconclusive: 50.1 µM [inhibitor, partial curve]
COc1ccccc1/C=C/C(=O)OCC(=O)Nc1ccc2c(c1)OCCO2		inconclusive: 1 µM [inhibitor, single point]
CCOC(=O)Cc1ccc(NC(=O)N2CCSc3ccccc32)cc1	inactive: 5.04%	
COc1ccc2nc(-c3ccco3)c(-c3ccco3)nc2c1		inconclusive: 3.16 µM [inhibitor, partial curve, poor fit]
CCOC(=O)c1cccc(NC(=O)CCc2nnc3ccc(N4CCOCC4)nn23)c1	inactive: 21.6% [at 102 µM]	
O=C(COc1cccc(F)c1)Oc1ccc(C(=O)c2ccccc2)cc1		inconclusive: 39.8 µM [inhibitor, partial curve, poor fit]
CCCC/C(C)=N\NC(=O)CNS(=O)(=O)c1ccc([N+](=O)[O-])cc1		inconclusive: 28.2 µM [inhibitor, single point]
Cc1ccc(C)c(C(=O)COC(=O)c2cc([N+](=O)[O-])ccc2NCCO)c1		inconclusive: 79.4 µM [inhibitor, partial curve, poor fit]
Cc1c(C(=O)O)oc2c1/C(=N\O)CCC2		inconclusive: 3.16 µM [inhibitor, full curve]
Cc1cccc(C)c1NC(=O)CSc1nc2c([nH]1)c(=O)n(C)c(=O)n2C	inactive: 1.79%	
N#Cc1ccccc1CN1C(=O)c2ccccc2S1(=O)=O	inactive: 24.8% [at 102 µM]	
CCCCn1c(-c2sccc2C)n[nH]c1=S		active: 7.94 µM
Fc1ccc(C(c2nnnn2Cc2ccco2)N2CCN(C3CCCCC3)CC2)cc1 (configuration not stated)	inactive: -9.3% [at 12.7 µM]	
Cc1ccc(-c2cc(C(=O)Nc3ccc(S(=O)(=O)N4CC(C)OC(C)C4)cc3)[nH]n2)c(O)c1 (configuration not stated)		inconclusive: 79.4 µM [inhibitor, single point]
COc1ccc(C2(C)NC(=O)N(CC(=O)Nc3ccc(-c4nc5ccc(C)cc5s4)cc3)C2=O)cc1 (configuration not stated)		inconclusive: 89.1 µM [inhibitor, partial curve, poor fit]
O=C(O)c1ccc(NS(=O)(=O)c2ccc3c(c2)OCCO3)cc1		inconclusive: 79.4 µM [inhibitor, single point]
CN1c2ccc(C=O)c3c(C=O)ccc(c23)N(C)C1(C)C		inconclusive: 50.1 µM [inhibitor, partial curve, poor fit]
CC1(C)CC(=O)C(N=Nc2ccc3ncsc3c2)=C(O)C1		inconclusive: 39.8 µM [inhibitor, single point]
